# Measured values: the supplement of paper PMC8728848
# The list shows a part of the results.
# Legend:
# Assay in all cases: glycan array binding signal (z-score within array); higher = stronger binding
# Conditions in all cases: glycan notation: IUPAC condensed, linker removed
# [1] = molecular target: Gal(b1-4)GlcNAc(b1-3)Gal(b1-4)GlcNAc(b1-3)Gal(b1-4)GlcNAc(b1-2)Man(a1-3)[Gal(b1-4)GlcNAc(b1-3)Gal(b1-4)GlcNAc(b1-3)Gal(b1-4)GlcNAc(b1-2)Man(a1-6)]Man(b1-4)GlcNAc(b1-4)GlcNAc
# In short: (§1)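 The Consortium for Functional Glycomics database supplied 3228 glycan arrays, of which those lacking an available protein sequence were dropped. The binding signal, a within-array Z-score, was averaged across arrays of the same protein sequence and across linkers. Negative scores can be read as non-binding.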
# [2] = molecular target: Gal(b1-4)GlcNAc(b1-3)Gal(b1-4)GlcNAc(b1-3)Gal(b1-4)GlcNAc(b1-2)Man(a1-3)[Gal(b1-4)GlcNAc(b1-3)Gal(b1-4)GlcNAc(b1-3)Gal(b1-4)GlcNAc(b1-2)Man(a1-6)]Man(b1-4)GlcNAc(b1-4)[Fuc(a1-6)]GlcNAc
# In short: as §1
# [3] = molecular target: Gal(b1-4)GlcNAc(b1-3)Gal(b1-4)GlcNAc(b1-3)Gal(b1-4)GlcNAc(b1-2)[Gal(b1-4)GlcNAc(b1-3)Gal(b1-4)GlcNAc(b1-3)Gal(b1-4)GlcNAc(b1-6)]Man(a1-6)[Gal(b1-4)GlcNAc(b1-3)Gal(b1-4)GlcNAc(b1-3)Gal(b1-4)GlcNAc(b1-2)Man(a1-3)]Man(b1-4)GlcNAc(b1-4)[Fuc(a1-6)]GlcNAc
# In short: as §1
# [4] = molecular target: Gal(b1-4)GlcNAc(b1-3)Gal(b1-4)GlcNAc(b1-3)Gal(b1-4)GlcNAc(b1-3)Gal(b1-4)GlcNAc(b1-2)Man(a1-3)[Gal(b1-4)GlcNAc(b1-3)Gal(b1-4)GlcNAc(b1-3)Gal(b1-4)GlcNAc(b1-3)Gal(b1-4)GlcNAc(b1-2)Man(a1-6)]Man(b1-4)GlcNAc(b1-4)GlcNAc
# In short: as §1
# [5] = molecular target: Gal(b1-4)GlcNAc(b1-3)Gal(b1-4)GlcNAc(b1-3)Gal(b1-4)GlcNAc(b1-3)Gal(b1-4)GlcNAc(b1-2)Man(a1-3)[Gal(b1-4)GlcNAc(b1-3)Gal(b1-4)GlcNAc(b1-3)Gal(b1-4)GlcNAc(b1-3)Gal(b1-4)GlcNAc(b1-2)Man(a1-6)]Man(b1-4)GlcNAc(b1-4)[Fuc(a1-6)]GlcNAc
# In short: as §1
# [6] = molecular target: Gal(b1-4)GlcNAc(b1-3)Gal(b1-4)GlcNAc(b1-3)Gal(b1-4)GlcNAc(b1-3)Gal(b1-4)GlcNAc(b1-2)[Gal(b1-4)GlcNAc(b1-3)Gal(b1-4)GlcNAc(b1-3)Gal(b1-4)GlcNAc(b1-3)Gal(b1-4)GlcNAc(b1-6)]Man(a1-6)[Gal(b1-4)GlcNAc(b1-3)Gal(b1-4)GlcNAc(b1-3)Gal(b1-4)GlcNAc(b1-3)Gal(b1-4)GlcNAc(b1-2)Man(a1-3)]Man(b1-4)GlcNAc(b1-4)[Fuc(a1-6)]GlcNAc
# In short: as §1
# [7] = molecular target: Gal(b1-4)GlcNAc(b1-3)Gal(b1-4)GlcNAc(b1-3)Gal(b1-4)GlcNAc(b1-3)Gal(b1-4)GlcNAc(b1-3)Gal(b1-4)GlcNAc(b1-2)Man(a1-3)[Gal(b1-4)GlcNAc(b1-3)Gal(b1-4)GlcNAc(b1-3)Gal(b1-4)GlcNAc(b1-3)Gal(b1-4)GlcNAc(b1-3)Gal(b1-4)GlcNAc(b1-2)Man(a1-6)]Man(b1-4)GlcNAc(b1-4)GlcNAc
# In short: as §1
# [8] = molecular target: Gal(b1-4)GlcNAc(b1-3)Gal(b1-4)GlcNAc(b1-3)Gal(b1-4)GlcNAc(b1-3)Gal(b1-4)GlcNAc(b1-3)Gal(b1-4)GlcNAc(b1-2)Man(a1-3)[Gal(b1-4)GlcNAc(b1-3)Gal(b1-4)GlcNAc(b1-3)Gal(b1-4)GlcNAc(b1-3)Gal(b1-4)GlcNAc(b1-3)Gal(b1-4)GlcNAc(b1-2)Man(a1-6)]Man(b1-4)GlcNAc(b1-4)[Fuc(a1-6)]GlcNAc
# In short: as §1
# [9] = molecular target: Gal(b1-4)GlcNAc(b1-3)Gal(b1-4)GlcNAc(b1-3)Gal(b1-4)GlcNAc(b1-3)Gal(b1-4)GlcNAc(b1-3)Gal(b1-4)GlcNAc(b1-2)[Gal(b1-4)GlcNAc(b1-3)Gal(b1-4)GlcNAc(b1-3)Gal(b1-4)GlcNAc(b1-3)Gal(b1-4)GlcNAc(b1-3)Gal(b1-4)GlcNAc(b1-6)]Man(a1-6)[Gal(b1-4)GlcNAc(b1-3)Gal(b1-4)GlcNAc(b1-3)Gal(b1-4)GlcNAc(b1-3)Gal(b1-4)GlcNAc(b1-3)Gal(b1-4)GlcNAc(b1-2)Man(a1-3)]Man(b1-4)GlcNAc(b1-4)[Fuc(a1-6)]GlcNAc
# In short: as §1
# [10] = molecular target: Gal(b1-4)GlcNAc(b1-3)Gal(b1-4)GlcNAc(b1-3)Gal(b1-4)GlcNAc(b1-3)Gal(b1-4)GlcNAc(b1-3)Gal(b1-4)GlcNAc(b1-3)Gal(b1-4)GlcNAc(b1-2)Man(a1-3)[Gal(b1-4)GlcNAc(b1-3)Gal(b1-4)GlcNAc(b1-3)Gal(b1-4)GlcNAc(b1-3)Gal(b1-4)GlcNAc(b1-3)Gal(b1-4)GlcNAc(b1-3)Gal(b1-4)GlcNAc(b1-2)Man(a1-6)]Man(b1-4)GlcNAc(b1-4)GlcNAc
# In short: as §1
# [11] = molecular target: Gal(b1-4)GlcNAc(b1-3)Gal(b1-4)GlcNAc(b1-3)GalNAc
# In short: as §1
# [12] = molecular target: Gal(b1-4)GlcNAc(b1-3)Gal(b1-4)GlcNAc(b1-3)[Gal(b1-4)GlcNAc(b1-3)Gal(b1-4)GlcNAc(b1-6)]GalNAc
# In short: as §1
# [13] = molecular target: Gal(b1-4)GlcNAc(b1-3)Gal(b1-4)GlcNAc(b1-6)[Gal(b1-3)]GalNAc
# In short: as §1
# [14] = molecular target: Gal(b1-4)GlcNAc(b1-3)Gal(b1-4)[Fuc(a1-3)]GlcNAc(b1-3)Gal(b1-4)[Fuc(a1-3)]GlcNAc
# In short: as §1
# [15] = molecular target: Gal(b1-4)GlcNAc(b1-3)GalNAc
# In short: as §1
# [16] = molecular target: Gal(b1-4)GlcNAc(b1-3)[Fuc(a1-3)GlcNAc(b1-6)]Gal(b1-4)Glc
# In short: as §1
# [17] = molecular target: Gal(b1-4)GlcNAc(b1-3)[Gal(b1-4)GlcNAc(b1-6)]Gal(b1-4)GlcNAc
# In short: as §1
# [18] = molecular target: Gal(b1-4)GlcNAc(b1-3)[GlcNAc(b1-6)]Gal(b1-4)GlcNAc
# In short: as §1
# [19] = molecular target: Gal(b1-4)GlcNAc(b1-6)Gal(b1-4)GlcNAc
# In short: as §1
binder,measurement,setting,value
Clec49 (Caenorhabditis elegans) (protein) MTRLTLLLFGLLGAATAQTCNTGGIYNEQFNRCYQYFTAPAQFSFAEQQCNLLGGHLASVQNGQENALLQSNAANSFKRSNYSDYWIGATDLETSGTWKWTDPSVTFDYSNWQLGEPQSGSDCAIQDKGDGTWSAIGCTSYRPYVCVTPVIMTATCPPITTPIPTTCPTPAPCPIKQCVPSCDQGWTYFSPTDFCYRVYHGEKFNDAEASCVLLGGHLASIHSLTENTFVNNIASCGIKEGKYEHLAWIGMRKVGQDWVWTDGTPSDYFNWAPKQPDNPKKELCVQTAPDLSHDKWYENWNNLECNEVMRAYICKKASIHN,glycan array binding signal (z-score),[1],2.57
same,glycan array binding signal (z-score),[2],-0.058
same,glycan array binding signal (z-score),[3],0.547
same,glycan array binding signal (z-score),[4],-0.294
same,glycan array binding signal (z-score),[5],0.849
same,glycan array binding signal (z-score),[6],0.328
same,glycan array binding signal (z-score),[7],0.133
same,glycan array binding signal (z-score),[8],-0.115
same,glycan array binding signal (z-score),[9],0.068
same,glycan array binding signal (z-score),[10],0.6
same,glycan array binding signal (z-score),[11],1.52
same,glycan array binding signal (z-score),[12],0.255
same,glycan array binding signal (z-score),[13],-0.331
same,glycan array binding signal (z-score),[14],-0.058
same,glycan array binding signal (z-score),[15],-0.045
same,glycan array binding signal (z-score),[16],-0.223
same,glycan array binding signal (z-score),[17],-0.404
same,glycan array binding signal (z-score),[18],-0.662
same,glycan array binding signal (z-score),[19],0.803
